Structures are written as SMILES. The list shows a part of the results. Repeats are few or missing, and single values can be far off.
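Further: cells treated in 1,536-well plates, then fixed and DAPI-stained, with nuclei counted from automated high-throughput microscope images.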

The test system of this test is SkMel30. Briefly: cell count relative to DMSO control; melanoma cells; higher = more viable cells. As to conditions: library dose: standard library concentration; 72 h.
In turn, `Cc1cc(Nc2cc(N3CCN(C)CC3)nc(Sc3ccc(NC(=O)C4CC4)cc3)n2)n[nH]1` [Tozasertib] + C=CCn1c(=O)c2cnc(Nc3ccc(N4CCN(C)CC4)cc3)nc2n1-c1cccc(C(C)(C)O)n1 [MK1775] (first compound 0.03 µM, partner dose 0.1 µM) gave a cell count of 82.7%. As for `Cc1cc(Nc2cc(N3CCN(C)CC3)nc(Sc3ccc(NC(=O)C4CC4)cc3)n2)n[nH]1` [Tozasertib] + Cc1ccc(NC(=O)c2cccc(N(C)C)c2)cc1NC(=O)c1ccc(O)cc1 [ZM336372] (first compound 0.03 µM, partner dose 10 µM), the cell count is 88.1%. Under `CC[C@]1(O)C[C@H]2CN(CCc3c([nH]c4ccccc34)[C@@](C(=O)OC)(c3cc4c(cc3OC)N(C=O)[C@H]3[C@@](O)(C(=O)OC)[C@H](OC(C)=O)[C@]5(CC)C=CCN6CC[C@]43[C@@H]65)C2)C1` [vincristine] + C[C@@H]1CCN(C(=O)CC#N)C[C@@H]1N(C)c1ncnc2[nH]ccc12 [CP690550] (first compound 0.0005 µM, partner dose 5 µM) stands 51%; under `Cc1cc(Nc2cc(N3CCN(C)CC3)nc(Sc3ccc(NC(=O)C4CC4)cc3)n2)n[nH]1` [Tozasertib] + CC(C)(C)c1cnc(CSc2cnc(NC(=O)C3CCNCC3)s2)o1 [SNS-032] (first compound 0.03 µM, partner dose 0.05 µM), 97%. Then `CC[C@]1(O)C[C@H]2CN(CCc3c([nH]c4ccccc34)[C@@](C(=O)OC)(c3cc4c(cc3OC)N(C=O)[C@H]3[C@@](O)(C(=O)OC)[C@H](OC(C)=O)[C@]5(CC)C=CCN6CC[C@]43[C@@H]65)C2)C1` [vincristine] + C=CCn1c(=O)c2cnc(Nc3ccc(N4CCN(C)CC4)cc3)nc2n1-c1cccc(C(C)(C)O)n1 [MK1775] (first compound 0.0005 µM, partner dose 0.1 µM), with 42.1%. Compound `CC[C@]1(O)C[C@H]2CN(CCc3c([nH]c4ccccc34)[C@@](C(=O)OC)(c3cc4c(cc3OC)N(C=O)[C@H]3[C@@](O)(C(=O)OC)[C@H](OC(C)=O)[C@]5(CC)C=CCN6CC[C@]43[C@@H]65)C2)C1` [vincristine] + Cn1cncc1[C@@](N)(c1ccc(Cl)cc1)c1ccc2c(c1)c(-c1cccc(Cl)c1)cc(=O)n2C [tipifarnib] (first compound 0.0005 µM, partner dose 0.05 µM) registered a cell count of 77.7%. Then `N#CC[C@H](C1CCCC1)n1cc(-c2ncnc3[nH]ccc23)cn1` [ruxolitinib] + NCC(=O)Nc1ccc(-n2nc(C(F)(F)F)cc2-c2ccc3c(ccc4ccccc43)c2)cc1 [OSU03012] (first compound 5 µM, partner dose 5 µM), with 37%. Then `N#CC[C@H](C1CCCC1)n1cc(-c2ncnc3[nH]ccc23)cn1` [ruxolitinib] + CC(C)(C)c1cnc(CSc2cnc(NC(=O)C3CCNCC3)s2)o1 [SNS-032] (first compound 5 µM, partner dose 0.05 µM), with 109%. Then `CC[C@]1(O)C[C@H]2CN(CCc3c([nH]c4ccccc34)[C@@](C(=O)OC)(c3cc4c(cc3OC)N(C=O)[C@H]3[C@@](O)(C(=O)OC)[C@H](OC(C)=O)[C@]5(CC)C=CCN6CC[C@]43[C@@H]65)C2)C1` [vincristine] + Cc1cc(N2CCOCC2)cc2[nH]c(-c3c(NC[C@@H](O)c4cccc(Cl)c4)cc[nH]c3=O)nc12 [BMS536924] (first compound 0.0005 µM, partner dose 1 µM), with 47.7%; and `CC[C@]1(O)C[C@H]2CN(CCc3c([nH]c4ccccc34)[C@@](C(=O)OC)(c3cc4c(cc3OC)N(C=O)[C@H]3[C@@](O)(C(=O)OC)[C@H](OC(C)=O)[C@]5(CC)C=CCN6CC[C@]43[C@@H]65)C2)C1` [vincristine] + CC(C)(C)c1cnc(CSc2cnc(NC(=O)C3CCNCC3)s2)o1 [SNS-032] (first compound 0.0005 µM, partner dose 0.05 µM), with 56.2%; and `N#CC[C@H](C1CCCC1)n1cc(-c2ncnc3[nH]ccc23)cn1` [ruxolitinib] + NC(=O)Nc1cc(-c2cccc(F)c2)sc1C(=O)N[C@H]1CCCNC1 [AZD7762] (first compound 5 µM, partner dose 0.1 µM), with 117%.

The values are drawn from the supplement of paper PMC4604168 (melanoma cell lines).
